± gives the standard deviation of the averaged measurements. Some of the results follow.
The sequences below were run on PfAP2-LT AP2 domain (GST-tagged) (assay: gcPBM binding intensity (ln(normalized median fluorescence intensity)); higher = stronger DNA binding).
In short: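 Binding intensity is defined as the maximum Masliner-normalised natural-log median intensity across replicate spots for either probe orientation. It was measured on an Agilent 4 × 180k array of primer-extended double-stranded 36-bp intergenic genomic probes and negative controls, to which GST-tagged P. falciparum DNA-binding domains made in E. coli were applied for 1 h in 1× PBS with 1% milk, 0.2 mg/ml BSA, 0.5% salmon testes DNA and 0.03% Triton X-100. Detection was by Alexa488 anti-GST antibody and scanning at 488 nm.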

Sequence | gcPBM binding intensity (ln)
TAGGAAAAGAAAAGCACACACATAAATAGATATATA [CACACA_site6382] | 9.43 ± 0.54
ATATATATATATATATATATAATTTTTTTTGTTTTT [TGCATGCA_negctrl_site453] | 9.91 ± 0.42
GATATCAAAAAGATGGGTACATATATTTAAGTTCAT [XGTACX_site3822] | 8.76 ± 0.49
TATATTATTAATTAGGGTACAAAAAAAAAATTTTTT [XGTACX_site7762] | 8.3 ± 0.48
TTTTGAAAAAGTTGCACACAAAATTTAAAAAAAAAA [CACACA_site1632] | 8.72 ± 0.5
TTAAATAGAAATAAGACTAACAATGAACCAAAAAAA [CACACA_negctrl_site991] | 8.79 ± 0.5
CTTAAAAAAACCTTAACACACATAAACTATAATTTA [CACACA_site3055] | 8.65 ± 0.4
TTTTCATTTGAAAGTCGTACAAGTTCGAAAAAAGGA [XGTACX_site6840] | 8.79 ± 0.47
ATATTATATATATGTGCACACAAAAGATATATATAT [CACACA_site2125] | 9.91 ± 0.27
ATAAGCAATAAAAAAACATGCATATTATTATCAACA [TGCATGCA_site1027] | 8.85 ± 0.45
TGCAACAAAATAAACACACACACACTAACACAAAAA [CACACA_site7567] | 9.98 ± 0.33
TTTAAAAATAAAAGTACACACATAAACATATTGCAC [CACACA_site6784] | 9 ± 0.33
ATCAAGCACGGACACACACACACACCCAGACCCCCA [CACACA_site4360] | 10.19 ± 0.099
AAGTTAACACAACAGGTGCAAGAAAAGTTTTTAATG | 8.77 ± 0.45
TATGGTATATACAACACACACACATATGTATATATA [CACACA_site927] | 9.62 ± 0.44
TCTTTAATATATAGTGCATGTAAATTTTACAATAAT [TGCATGCA_site242] | 8.52 ± 0.36
AGTTAATGTTTATGTACACACGGTGGGTATATATTT [CACACA_site5785] | 9.18 ± 0.35
TATACATTTATGTACACACACATATAGGTATATTTA [CACACA_site7408] | 9.09 ± 0.33
AAAATATAATATATTACACACATATATTTTATAAGT [CACACA_site668] | 8.96 ± 0.39
TATATACATTTATATACACACCTATATTTATTTATA [CACACA_site7014] | 8.82 ± 0.49
ATTATATATATTTATGCACACAAAATATATTATATA [CACACA_site9244] | 8.78 ± 0.32
TTTTTTTAACGGTGTGCACACAATATACAGAAAAAA [CACACA_site1415] | 9.23 ± 0.48

Sequence | gcPBM binding intensity (ln)
TATATTGAAAATAAAACATGCAATCACTCATACATA [TGCATGCA_site248] | 8.76 ± 0.28
CAACAATTTCGTCATACACACATTCAGAATCTATAT [CACACA_site7171] | 8.97 ± 0.42
ATGTACCTATTTCATACACACACACCCACAAACAAA [CACACA_site8232] | 9.66 ± 0.16
CAAAAAAGTAAAACGTGTACATATATACATAAAAAT [XGTACX_site5639] | 9.22 ± 0.43
TACGTAATAATATGCACACAAATAAACTTTATAAAT [CACACA_site3501] | 9.11 ± 0.42
TTTAAACGTTATATAGTGCATGTCATATTTTATTAT | 8.85 ± 0.42
CTTTTTTATATCTCTACACACATTTATAACAATTTG [CACACA_site1398] | 9.03 ± 0.46
TATGTTGGTTCTTTTAGTACATAATTACTAAATGTA [XGTACX_site8616] | 8.71 ± 0.42
CAAACTACAAAATTTCGTACGCATATATTTCAAGTA [XGTACX_site5154] | 8.74 ± 0.43
AAAACATACATATATACACACATATATATATATATA [CACACA_site1852] | 9.97 ± 0.53
TATAAAAAATAAAATACACACACATATATATATATA [CACACA_site8365] | 9.74 ± 0.28
TAATTTCTTATGTGCTATCTTATATAGAATTAATTT [CACACA_negctrl_site1726] | 8.53 ± 0.51
TGCACAAAATTATGCACACACCTAAAATTAATTTTT [CACACA_site5596] | 9.06 ± 0.34
GGCAATGATTTTAGGTGTACTTAAAAATCAAATTAA [XGTACX_site8587] | 8.47 ± 0.53
ATTCTAATCATATACACACCCATATATATATATATA [CACACA_site1774] | 9.87 ± 0.29
TATATATTAATATGCACACACAAGAAGTAATTATAA [CACACA_site3193] | 9.34 ± 0.37
ATTATATAACAAAATAGTACATATATTTATTACATC [XGTACX_site336] | 8.57 ± 0.4
AAAAAAAAAATTTAGGTGCATACAAATAAATTATAT [GTGCAC_site9521] | 8.65 ± 0.59
AGCAGTCAGCAGGACAGTACACAGTAGCCAGGAAAT [XGTACX_site4877] | 9.28 ± 0.52
TTATTCTAAAAAGGGTGTACACAAACGAATGGAAAA [XGTACX_site5662] | 8.99 ± 0.38
ATGGCTAAAAGTTGCACACACACAAAAAAAAAAAAA [CACACA_site3289] | 9.52 ± 0.49
AAAATTATTTAGTAAGTGCAAAAAAAAAAAAAAAAA | 8.53 ± 0.66
